Results are given in words; binding and its absence hold for the method and conditions named. In cells and extracts the contact can be indirect. Some results given as binding are weak or reduced against the parent protein; the word gives no strength. Values belong to the molecule of their own block, whether it stands above or below them.
Columns and labels:
[1] = biological target: RING finger protein 7 (human (endogenous in Caki-1 and ACHN)) (UniProt Q9UBF6); test: co-IP; Caki-1 cell lysates (RIPA buffer with 1 mM DTT, 100 mmol/l NaCl, 1 mM MgCl2) immunoprecipitated with RNF7 antibodies, protein A/G agarose, 4 °C 2 h; Western blot for JAK/STAT3 signaling proteins (Fig. S2A)
[2] = biological target: RING finger protein 7 (human (endogenous in Caki-1 and ACHN)) (UniProt Q9UBF6); test: co-IP; reciprocal co-immunoprecipitation in Caki-1 and ACHN cell lysates with control IgG, anti-RNF7 or anti-SOCS1 antibodies, protein A/G agarose, 4 °C 2 h; Western blot (Fig. 5A)
[3] = biological target: SOCS1 (human (endogenous in Caki-1 and ACHN)) (UniProt O15524); test: as above

Sequences of proteins named here, by UniProt entry; tags and fusion partners are left off. A change or cut given only in a name is not applied to a line headed by its entry.
UniProt Q9UBF6: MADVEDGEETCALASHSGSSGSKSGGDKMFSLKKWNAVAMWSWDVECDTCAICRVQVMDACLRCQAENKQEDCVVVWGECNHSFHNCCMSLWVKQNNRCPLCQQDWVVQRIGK
UniProt O15524: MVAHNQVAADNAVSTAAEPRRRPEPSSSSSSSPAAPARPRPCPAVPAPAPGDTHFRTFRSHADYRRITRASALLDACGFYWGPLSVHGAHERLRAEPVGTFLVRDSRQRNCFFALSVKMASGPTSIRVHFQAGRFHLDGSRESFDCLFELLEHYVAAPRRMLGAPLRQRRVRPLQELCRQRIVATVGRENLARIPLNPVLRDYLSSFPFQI
UniProt P29350: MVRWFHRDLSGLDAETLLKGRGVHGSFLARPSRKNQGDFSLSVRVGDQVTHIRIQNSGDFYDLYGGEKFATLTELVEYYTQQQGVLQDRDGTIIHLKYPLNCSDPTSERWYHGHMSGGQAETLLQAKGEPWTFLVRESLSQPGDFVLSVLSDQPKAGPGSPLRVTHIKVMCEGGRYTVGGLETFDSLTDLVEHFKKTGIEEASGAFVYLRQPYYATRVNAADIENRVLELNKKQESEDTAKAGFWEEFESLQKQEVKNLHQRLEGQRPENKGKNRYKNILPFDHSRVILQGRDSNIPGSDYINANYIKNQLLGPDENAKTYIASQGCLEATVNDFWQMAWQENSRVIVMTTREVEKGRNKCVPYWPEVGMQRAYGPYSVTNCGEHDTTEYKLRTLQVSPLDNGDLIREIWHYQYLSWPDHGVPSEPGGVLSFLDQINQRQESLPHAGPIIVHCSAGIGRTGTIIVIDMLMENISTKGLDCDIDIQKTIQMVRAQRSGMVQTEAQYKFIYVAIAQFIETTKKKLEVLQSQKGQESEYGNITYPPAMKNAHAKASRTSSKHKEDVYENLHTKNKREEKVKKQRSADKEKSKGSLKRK
UniProt O75925: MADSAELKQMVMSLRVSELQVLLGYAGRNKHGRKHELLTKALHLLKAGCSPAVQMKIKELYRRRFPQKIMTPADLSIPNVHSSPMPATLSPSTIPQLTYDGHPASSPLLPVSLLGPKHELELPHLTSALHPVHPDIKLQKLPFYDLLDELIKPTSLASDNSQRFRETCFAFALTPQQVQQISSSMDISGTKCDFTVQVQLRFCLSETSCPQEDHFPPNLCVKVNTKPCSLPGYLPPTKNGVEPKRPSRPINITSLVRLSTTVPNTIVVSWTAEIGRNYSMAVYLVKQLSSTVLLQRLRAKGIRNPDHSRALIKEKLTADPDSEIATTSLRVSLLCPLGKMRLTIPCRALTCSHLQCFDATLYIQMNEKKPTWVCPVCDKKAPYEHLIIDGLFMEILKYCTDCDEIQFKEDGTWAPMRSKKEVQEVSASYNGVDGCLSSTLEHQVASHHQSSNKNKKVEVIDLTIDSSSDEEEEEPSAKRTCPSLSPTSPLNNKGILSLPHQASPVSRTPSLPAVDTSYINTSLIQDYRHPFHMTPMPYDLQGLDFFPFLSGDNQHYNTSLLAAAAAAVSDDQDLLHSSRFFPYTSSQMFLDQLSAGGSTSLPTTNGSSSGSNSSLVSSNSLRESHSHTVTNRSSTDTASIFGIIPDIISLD
UniProt O14543: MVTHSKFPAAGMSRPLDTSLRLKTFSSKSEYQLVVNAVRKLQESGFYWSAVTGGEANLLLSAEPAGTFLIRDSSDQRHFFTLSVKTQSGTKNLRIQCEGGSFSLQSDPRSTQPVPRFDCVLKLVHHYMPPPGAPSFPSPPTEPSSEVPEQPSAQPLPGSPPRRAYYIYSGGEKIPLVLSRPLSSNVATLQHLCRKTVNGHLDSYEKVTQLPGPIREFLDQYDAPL

Molecule: SOCS1 (from UniProt O15524 1-211)
- binding [1]: binds
- binding [2]: binds

Molecule: SHP-1 (from UniProt P29350 1-595)
- binding [1]: no binding

Molecule: PIAS1 (from UniProt O75925 1-651)
- binding [1]: no binding

Next, values leading:

- binding [3]: binds
Molecule: RING finger protein 7 (from UniProt Q9UBF6-1 1-113)

- binding [1]: no binding
Molecule: SOCS3 (from UniProt O14543 1-225)

- binding [1]: no binding
B1: PTP1B (protein, UniProt P18031 1-435)
chain: MEMEKEFEQIDKSGSWAAIYQDIRHEASDFPCRVAKLPKNKNRNRYRDVSPFDHSRIKLHQEDNDYINASLIKMEEAQRSYILTQGPLPNTCGHFWEMVWEQKSRGVVMLNRVMEKGSLKCAQYWPQKEEKEMIFEDTNLKLTLISEDIKSYYTVRQLELENLTTQETREILHFHYTTWPDFGVPESPASFLNFLFKVRESGSLSPEHGPVVVHCSAGIGRSGTFCLADTCLLLMDKRKDPSSVDIKKVLLEMRKFRMGLIQTADQLRFSYLAVIEGAKFIMGDSSVQDQWKELSHEDLEPPPEHIPPPPRPPKRILEPHNGKCREFFPNHQWVKEETQEDKDCPIKEEKGSPLNAAPYGIESMSQDTEVRSRVVGGSLRGAQAASPAKGEPSLPEKDEDHALSYWKPFLVNMCVATVLTAGAYLCYRFLFNSNT
